For 11 compounds, cytotoxicity call and growth inhibition call results are on record in the antibiotic and cytotoxicity screens of Wong et al. (2023).

The list shows a part of the results.

For assay [1], the system named is HSkMC (human skeletal muscle cells). Kind of assay: cytotoxicity call (relative viability < 0.9). The note with it: 10 µM.
For assay [2], the system named is HepG2. The experiment in a line: cytotoxicity call (relative viability < 0.9). The note with it: 10 µM.
Assay [3] has as its system S. aureus RN4220. Kind of assay: growth inhibition call (relative growth <= 0.2). Particulars: 50 µM.

On to `Cc1ccc(S(=O)(=O)N[C@H]2CC[C@H](CC(=O)NCc3ccc(Cl)c(Cl)c3)O[C@H]2CO)cc1`, for which the cytotoxicity call in assay [1] and in assay [2] was “inactive” throughout. For the same compound, the growth inhibition call in assay [3] is “inactive”.
As for `NNC(=O)C1CCCC1`, the cytotoxicity call in assay [1] and in assay [2] was “inactive” each time. Also, the growth inhibition call in assay [3] is “inactive”.
Regarding `C[C@@H]1CN([C@H](C)CO)C(=O)c2cc(NC(=O)Cc3cn(C)c4ccccc34)ccc2O[C@@H]1CN(C)C(=O)Nc1cccc2ccccc12`, in assay [1], the cytotoxicity call is “active”. In assay [2], the cytotoxicity call is “inactive”. Moreover, in assay [3], the growth inhibition call is “inactive”.
For the compound `Cc1noc(C)c1NC(=O)N(C)C[C@H]1Oc2ccc(NC(=O)Cn3cnnn3)cc2C(=O)N([C@H](C)CO)C[C@@H]1C`, the cytotoxicity call in assay [1] and in assay [2] was “inactive” each time. Moreover, the growth inhibition call in assay [3] is “inactive”.
Consider `C[C@H](CO)N1C[C@H](C)[C@@H](CN(C)C(=O)Nc2ccccc2)OCCCC[C@H](C)Oc2ccc(NC(=O)Cc3ccccc3)cc2C1=O`, for which the cytotoxicity call in assay [1] and in assay [2] was “inactive” each time. In assay [3], the growth inhibition call was “inactive”.
As to `NC(=O)Nc1nc2ccccc2[nH]c1=O`, the cytotoxicity call in assay [1] and in assay [2] was “inactive” throughout. In addition, the growth inhibition call in assay [3] was “inactive”.
Take `C[C@H]1CCc2[nH]c3ccccc3c2C1`: the cytotoxicity call in assay [1] was “inactive”. In addition, the cytotoxicity call in assay [2] is “active”. The growth inhibition call in assay [3] is “inactive”.
Regarding `CCCCc1nc(-c2ccc(OCCCN(CC)CC)cc2)cn1-c1ccc(Oc2ccc(Cl)cc2)cc1`, the cytotoxicity call in assay [1] and in assay [2] was “active” throughout. The growth inhibition call in assay [3] is “active”.
With `C[C@@H]1CN([C@H](C)CO)C(=O)c2cccc(NC(=O)C3CCOCC3)c2O[C@@H]1CN(C)C(=O)Nc1ccc2c(c1)OCO2`, the cytotoxicity call in assay [1] and in assay [2] was “inactive” each time. Also, in assay [3], the growth inhibition call was “inactive”.
Take `CCC(=O)N[C@H]1C=C[C@H](CC(=O)OC)O[C@H]1CO`: the cytotoxicity call in assay [1] and in assay [2] was “inactive” each time. Further, in assay [3], the growth inhibition call is “inactive”.
With `COc1ccccc1CNC(=O)C[C@H]1C[C@@H]2c3cc(NC(=O)c4ccc5c(c4)OCO5)ccc3O[C@@H]2[C@@H](CO)O1`, the cytotoxicity call in assay [1] and in assay [2] was “inactive” each time. The growth inhibition call in assay [3] is “inactive”.
